Source: PubChem BioAssay AID624417 (National Center for Advancing Translational Sciences (NCATS), 2012)
The campaign covered roughly 410,000 compounds. About 6,400 (1.6%) were called active. Inconclusive results, whose numbers are uncertain, are shown with a selection of clear calls. Calls follow the shape of the dose curve; as a rule, active = well fitted inhibition curve with a large enough effect; inconclusive = small, poorly fitted or top-dose-only effect; inactive = no such curve, though single readings can be large or run the other way. Potencies of inconclusive entries are doubtful fits and often do not repeat.

Each compound was assayed against Glucagon-like peptide 1 receptor (Homo sapiens) (UniProt P43220) (assay: qHTS of GLP-1 Receptor Inverse Agonists (Inhibition Mode)). Details: HEK293 GLP-1R CRE-luciferase, luminescence, 24 h, GLP-1R form is constitutively active; activity change, negative = inhibition: at 38.3 µM (top of the series) unless noted.
Outline: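 Constitutively active GLP-1R drives a cAMP-responsive luciferase in stably transfected HEK293 cells; test compounds are added after overnight (12 h) attachment and left 24 hr, and signal loss in luminescence marks inhibition.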
% is scaled to controls: 0 for no effect and ±100 for the full control effect; potency is read from the fitted curve at half-maximal effect; tags tell the direction and shape of the fitted curve.
Also: nearly all actives have a fitted effect of over 55% in size.

Chain of UniProt P43220 (P43220 whole entry, looked up): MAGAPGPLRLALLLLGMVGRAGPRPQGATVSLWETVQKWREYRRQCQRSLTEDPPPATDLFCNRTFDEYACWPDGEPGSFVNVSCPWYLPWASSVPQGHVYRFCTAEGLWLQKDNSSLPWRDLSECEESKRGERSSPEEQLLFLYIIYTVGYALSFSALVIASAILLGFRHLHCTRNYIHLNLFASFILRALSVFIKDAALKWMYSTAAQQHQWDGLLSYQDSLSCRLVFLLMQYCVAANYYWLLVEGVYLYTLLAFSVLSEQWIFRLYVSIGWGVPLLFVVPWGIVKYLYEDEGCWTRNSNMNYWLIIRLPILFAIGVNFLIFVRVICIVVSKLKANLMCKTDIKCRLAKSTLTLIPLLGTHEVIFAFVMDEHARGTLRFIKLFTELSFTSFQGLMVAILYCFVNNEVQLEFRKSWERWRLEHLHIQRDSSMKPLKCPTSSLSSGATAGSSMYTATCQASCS

Potency, inconclusive:
O=C(Cn1ncc2c1-c1ccccc1OC2)N1CCN(c2ccccc2F)CC1 1.78 µM [inhibitor, partial curve, poor fit], O=C(CSCc1ccccc1Cl)N1CCN(c2ccc(F)cc2)CC1 28.2 µM [inhibitor, single point], Cc1cccc(CSc2ncnc3c2cnn3Cc2ccccc2)c1 11.2 µM [inhibitor, partial curve, poor fit], O=C(Nc1cc(Br)ccc1O)C1CC(c2c(F)cccc2Cl)=NO1 (stereo not drawn) 28.2 µM [inhibitor, single point], CN(CC(=O)Nc1ccc(Cl)c(C(F)(F)F)c1)C(=O)c1ccc(S(=O)(=O)N2CCOCC2)cc1 7.08 µM [inhibitor, partial curve, poor fit], COc1cc(NC(=O)CC2C(=O)N(c3ccc(Cl)cc3)C(=O)N2Cc2cccs2)cc(OC)c1 (stereo not drawn) 20 µM [inhibitor, single point], CN1C(=O)C(CC(=O)Nc2ccccc2F)N(NC(=O)c2ccc(Br)cc2)C1=S (stereo not drawn) 31.6 µM [inhibitor, single point], N#Cc1nc(COc2ccc(Br)cc2)oc1N1CCCCCC1 28.2 µM [inhibitor, single point], CCOC(=O)C1=C[C@@H](C(C)(C)C)N(S(=O)(=O)c2ccc(C)cc2)[C@H]1c1ccc(F)cc1 3.55 µM [inhibitor, full curve, poor fit], C/C(=N/NC(=O)c1ccc(NC(=O)c2ccc(F)cc2)cc1)c1ccccc1 10 µM [inhibitor, partial curve, poor fit], COc1ccc(-c2cc3cc(F)ccc3cn2)cc1 12.6 µM [inhibitor, single point], CCN(CC)S(=O)(=O)c1ccc2oc(C(=O)NCC3COc4ccccc4O3)c(C)c2c1 (stereo not drawn) 8.91 µM [inhibitor, partial curve, poor fit], COC(=O)C1CCC(=O)N1C(c1ccc(OC)cc1)c1cc(OC)c(OC)c(OC)c1 (stereo not drawn) 1 µM [inhibitor, full curve, poor fit], CC1CCC(NC(=O)c2ccc3c(c2)N(Cc2ccccc2)C(=O)c2ccccc2S3=O)CC1 (stereo not drawn) 2.82 µM [inhibitor, partial curve, poor fit], COc1cc(-c2nnn(CC(=O)Nc3ccc(OC(F)(F)F)cc3)n2)cc(OC)c1OC 7.94 µM [inhibitor, partial curve, poor fit], Cc1c(Cl)ccc(S(=O)(=O)N2CCN(C)CC2)c1Cl 14.1 µM [inhibitor, partial curve, poor fit], COc1cccc(-c2c(C(=O)N/N=C(\C)c3cccs3)nnn2-c2nonc2N)c1 12.6 µM [inhibitor, partial curve, poor fit], C/C(=N\Nc1ccc(C(=O)O)cc1)c1ccc2c(c1)Nc1ccccc1S2 28.2 µM [inhibitor, single point], CC1CC(C)CN(S(=O)(=O)c2ccc(C(=O)NCc3ccco3)cc2)C1 (stereo not drawn) 31.6 µM [inhibitor, partial curve, poor fit], CCCCN(CCCC)S(=O)(=O)c1ccc(C(=O)Nc2nnc(COC)o2)cc1 28.2 µM [inhibitor, single point], CCOC(=O)[C@@H]1[C@H]2COc3ccccc3[C@@H]2N2C(=O)N(c3cccc(Cl)c3)C(=O)[C@]12C 12.6 µM [inhibitor, single point], CC1CCN(C(=O)CN(Cc2ccc(Cl)cc2)S(C)(=O)=O)CC1 8.91 µM [inhibitor, partial curve, poor fit], C=CCc1ccc(OCCCCN2CCC(C)CC2)c(OC)c1 14.1 µM [inhibitor, single point], O=C1CCCC(O)=C1N=Nc1cccc(C(=O)O)c1 31.6 µM [inhibitor, single point], Cc1ccc2c(c1)C(c1ccc(F)cc1)N(C(=O)COc1ccc(Cl)cc1Cl)CC(=O)N2 (stereo not drawn) 28.2 µM [inhibitor, single point], O=C(CSc1c2c(nc3ccc(Cl)cc13)CCCC2)N1CCN(c2cccc(Cl)c2)CC1 11.2 µM [inhibitor, partial curve, poor fit], O=C(Nc1nc(-c2ccccc2)cs1)c1ccccc1NS(=O)(=O)c1ccc(F)cc1 1.26 µM [inhibitor, full curve, poor fit], COc1ccc(C)cc1S(=O)(=O)N(CC(=O)Nc1cccc([N+](=O)[O-])c1)c1ccc(C)c(C)c1 10 µM [inhibitor, partial curve], COC(=O)c1ccc(CN2CCCC(CO)(Cc3ccccc3F)C2)cc1 (stereo not drawn) 28.2 µM [inhibitor, single point], COc1ccc(/C=C(\NC(=O)c2ccc(OC)cc2)C(=O)N2CCCCC2)cc1 8.91 µM [inhibitor, partial curve, poor fit], O=C(N/N=C/c1ccc(O)cc1)c1ccc(NC(=O)c2ccccc2Br)cc1 10 µM [inhibitor, partial curve], CCc1cccc(NC(=O)CCNS(=O)(=O)c2cc(Br)cnc2N)c1 10 µM [inhibitor, partial curve, poor fit], CCc1cc(C(=O)Nc2cc(S(=O)(=O)N(C)C)ccc2C)sc1C 28.2 µM [inhibitor, single point], O=C(NNc1nc2ccc(Cl)cc2s1)c1cc(-c2cccs2)nc2ccccc12 28.2 µM [inhibitor, single point], NS(=O)(=O)c1ccc(NC(=O)COC(=O)c2cn(-c3ccccc3)nc2-c2ccc(F)cc2)cc1 28.2 µM [inhibitor, single point], CC(C)C(=O)N1CCN(c2ccccc2NC(=O)c2ccc(Br)o2)CC1 22.4 µM [inhibitor, single point], O=C(COc1ccc(NC(=O)c2ccccc2)cc1)c1ccccc1 10 µM [inhibitor, partial curve], COc1cccc2cc(C(C)OC(=O)Nc3ccc(C)cc3)oc12 (stereo not drawn) 10 µM [inhibitor, partial curve], O=C(CNC(=O)c1ccc(F)cc1)N/N=C/c1cc(Br)ccc1OCc1ccccc1 28.2 µM [inhibitor, single point], CC1CCCCC1NC(=O)COn1nnc2ccc(Cl)cc21 (stereo not drawn) 12.6 µM [inhibitor, single point], O=C(CNCc1ccccc1)Nc1ccc(Oc2ccccc2)cc1 4.47 µM [inhibitor, partial curve, poor fit], Cc1ccc(NC(=O)CSCC(=O)Nc2cc(C(F)(F)F)ccc2N2CCOCC2)cc1 7.94 µM [inhibitor, partial curve, poor fit], Cc1ccc(S(=O)(=O)N(CC(=O)NCCSc2ccccn2)c2ccc(C)c(C)c2)cc1 12.6 µM [inhibitor, single point], OCC1(CCc2ccccc2)CCN(Cc2cnc(N3CCCC3)s2)CC1 31.6 µM [inhibitor, single point], O=C(N/C=C\c1ccccc1)NCc1ccc(Cl)cc1 14.1 µM [inhibitor, single point], CCOc1ccccc1N1CCN(C(=O)c2ccc3[nH]c(C)c(C)c3c2)CC1 3.16 µM [inhibitor, partial curve, poor fit], O=S(=O)(Nc1ncnc2scc(-c3ccc(F)cc3)c12)c1cc(F)ccc1F 11.2 µM [inhibitor, single point], O=C(NCc1cccc(OC(F)(F)F)c1)C1CCC(=O)N(Cc2cccc(F)c2)C1 (stereo not drawn) 7.94 µM [inhibitor, partial curve, poor fit]

Activity change, negative = inhibition, inactive:
CC(/C=N/NC(=O)c1nnn(-c2nonc2N)c1CN(C)C)=C\c1ccco1 9.25%, COc1ccc(-c2nc(CS(=O)CC(=O)NCc3ccc(C)cc3)c(C)o2)cc1OC (stereo not drawn) 69.5%, COc1cc(NS(=O)(=O)c2cc(C)ccc2OC)c(OC)cc1Cl -41.7%, CCOC(=O)c1cccc(NC(=O)CN2C(=O)c3ccccc3Sc3ncccc32)c1 -25.5%, CCOC(=O)c1c(C)[nH]c(CCC(=O)Nc2cc(C)ccc2OC)c1C -7.92%, COc1ccc(CC(C)N2CCN(Cc3ccccc3)CC2)cc1OC (stereo not drawn) 0.15%, O=C(Nc1ccc(S(=O)(=O)N2CCCCC2)cc1)c1ccccc1F -27.2%, CCN(CCCNC(=O)c1cc2c(=O)n(C)c3ccccc3c2s1)Cc1ccccc1 0.359%, Cc1oc2c(CN(C)C)c(O)ccc2c(=O)c1-c1cscn1 0.117%, CCc1ccc2c(c1)c(=O)c(S(=O)(=O)c1ccc(F)cc1)cn2CC(=O)Nc1ccc(C)cc1C -9.01%, CN1C(=S)N2CCCN2C1c1ccccc1 (stereo not drawn) -2.83%, COc1ccc(N)c2c1C(=O)c1ccccc1C2=O 29%, Cc1ccc(N2CCN(CC3CC=CCC3)CC2)cc1 (stereo not drawn) 0.394%, O=S1(=O)NC(C2CC2c2ccccc2)CCO1 (stereo not drawn) 0.843%, COc1cc(NS(=O)(=O)c2ccc3c(c2)CCN3S(C)(=O)=O)cc(OC)c1 -3.54%
